# Reference: PubChem BioAssay (NCATS)
# Inconclusive results, whose numbers are uncertain, are shown with a selection of clear calls. For some assays here: A potency beside an inconclusive call is a rough fit, not a confirmed value. Calls of active or inactive are those of the source. Calls follow the shape of the dose curve; as a rule, active = well fitted curve in the direction sought with a large enough effect; inconclusive = small, poorly fitted or top-dose-only effect, or another doubt; inactive = no such curve, though single readings can be large; an effect the other way counts as inactive or inconclusive.
# Key:
# CRL-7250 = normal cell line; assay: Cytotoxic Profiling of Annotated Libraries Using Quantitative High-Throughput Screening (AID 1296008); settings: Five cell lines viability, CellTiter-Glo ATP luminescence, 48-72 h; max response: hits give low values; also: nearly all actives have a fitted effect of over 60% in size; also: potency is read from the fitted curve at half-maximal effect; as to max response: % is scaled to controls: 0 for no effect and ±100 for the full control effect
# Method in brief: (§1)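 Cytotoxicity was measured as CellTiter-Glo ATP luminescence, read after 10 min at room temperature. Compound treatment of the cells lasted 48 or 72 hr at 37 degrees Celsius in a qHTS format.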
# KB-3-1 = assay: as above; settings: Five cell lines viability, CellTiter-Glo ATP luminescence, 48-72 h; max response: hits give low values
# Method in brief: as §1
# MCC-13 = assay: qHTS assay to identify novel small-molecules to repurpose for Merkel cell carcinoma treatment (AID 1296009); settings: MCC and control cell lines, CellTiter-Glo viability, 72 h; series mostly up to 46 µM; also: nearly all actives have a fitted effect of over 60% in size; also: potency is read from the fitted curve at half-maximal effect; as to activity change, negative = cytotoxicity: % is scaled to controls: 0 for no effect and ±100 for the full control effect
# Method in brief: (§2)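 After compound transfer in DMSO, plates were kept 72 hr at 37 degree celsius. Luminescent ATP signal from CellTiter-Glo served as viability measure, normalized against DMSO and no-cell controls.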
# MCC-26 = assay: as above; settings: MCC and control cell lines, CellTiter-Glo viability, 72 h; series mostly up to 46 µM
# Method in brief: as §2
# MKL-1 = assay: as above; settings: MCC and control cell lines, CellTiter-Glo viability, 72 h; series mostly up to 46 µM
# Method in brief: as §2
# MKL-2 = assay: as above; settings: MCC and control cell lines, CellTiter-Glo viability, 72 h; series mostly up to 46 µM
# Method in brief: as §2
# UISO = assay: as above; settings: MCC and control cell lines, CellTiter-Glo viability, 72 h; series mostly up to 46 µM
# Method in brief: as §2
# WaGa = assay: as above; settings: MCC and control cell lines, CellTiter-Glo viability, 72 h; series mostly up to 46 µM
# Method in brief: as §2
# W2 = assay: qHTS profiling for inhibitors of Plasmodium falciparum proliferation (AID 504749); also: nearly all actives have a fitted effect of over 60% in size; also: potency is read from the fitted curve at half-maximal effect; settings: P. falciparum in erythrocytes, SYBR Green DNA, 72 h; series mostly up to 28.7 µM
# Method in brief: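 Three-day growth assay of blood-stage parasites in erythrocytes (0.3% parasitemia, 2.5% hematocrit) at 37 C, 5% CO2, quantified by SYBR Green DNA staining after overnight detergent lysis.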
# NIH3T3 = assay: Cytotoxic Profiling of Annotated Libraries Using Quantitative High-Throughput Screening (AID 1296008); settings: Five cell lines viability, CellTiter-Glo ATP luminescence, 48-72 h; max response: hits give low values; also: nearly all actives have a fitted effect of over 60% in size; also: potency is read from the fitted curve at half-maximal effect; as to max response: % is scaled to controls: 0 for no effect and ±100 for the full control effect
# Method in brief: as §1
# astro = assay: Drug repurposing screens with cells derived from glioblastoma tumor samples (AID 1345199); settings: viability, ATP luminescence, 48 h; activity, negative = cell killing: at 45.9 µM (top of the series); also: nearly all actives have a fitted effect of over 40% in size; also: potency is read from the fitted curve at half-maximal effect
# Method in brief: (§3)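 Four patient lines of CD133+ GBM neurospheres were screened at several concentrations; hits were retested in those lines plus three slower-growing GBM lines, using 48-hour treatment and ATP-based viability.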
# C33A = assay: Primary qHTS to identify gynecologic anti-cancer compounds using libraries of approved drugs and bioactive compounds (AID 1345084); settings: Gynecologic cancer cell panel viability, ATPlite luminescence, 48 h; series mostly up to 57.5 µM; also: nearly all actives have a fitted effect of over 55% in size; also: potency is read from the fitted curve at half-maximal effect
# Method in brief: (§4)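 Measured: luminescence after ATPlite addition (15 min, RT). Exposure: 48 h, 37 C, 5% CO2.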
# CAOV3 = assay: as above; settings: Gynecologic cancer cell panel viability, ATPlite luminescence, 48 h; series mostly up to 57.5 µM
# Method in brief: as §4
# CASKI = assay: as above; settings: Gynecologic cancer cell panel viability, ATPlite luminescence, 48 h; activity change, negative = cytotoxicity: at 57.5 µM (top of the series)
# Method in brief: as §4
# Es-2 = assay: as above; settings: Gynecologic cancer cell panel viability, ATPlite luminescence, 48 h; series mostly up to 57.5 µM
# Method in brief: as §4
# HeLa = assay: as above; settings: Gynecologic cancer cell panel viability, ATPlite luminescence, 48 h; series mostly up to 57.5 µM
# Method in brief: as §4
# HaCat = assay: Cytotoxic Profiling of Annotated Libraries Using Quantitative High-Throughput Screening (AID 1296008); settings: Five cell lines viability, CellTiter-Glo ATP luminescence, 48-72 h; max response: hits give low values; also: nearly all actives have a fitted effect of over 60% in size; also: potency is read from the fitted curve at half-maximal effect; as to max response: % is scaled to controls: 0 for no effect and ±100 for the full control effect
# Method in brief: as §1
# [1] = Drug repurposing screens with cells derived from glioblastoma tumor samples (AID 1345199); settings: GBM patient neurospheres viability, ATP luminescence, 48 h; Potency: tumour line A unless noted; activity, negative = cell killing: at 46 µM (top of the series), tumour line A unless noted; also: nearly all actives have a fitted effect of over 40% in size; also: potency is read from the fitted curve at half-maximal effect
# Method in brief: as §3
# HEK293 = assay: Cytotoxic Profiling of Annotated Libraries Using Quantitative High-Throughput Screening (AID 1296008); settings: Five cell lines viability, CellTiter-Glo ATP luminescence, 48-72 h; max response: hits give low values; also: nearly all actives have a fitted effect of over 60% in size; also: potency is read from the fitted curve at half-maximal effect
# Method in brief: as §1
# [2] = qHTS assay to identify inhibitors of the type 1 interferon - major histocompatibility complex class I in skeletal muscle: Counter screen cell viability and HiBit confirmation (AID 1347412); settings: iHSKM muscle cells + IFN-b, HiBiT or CellTiter-Glo, 24 h, at 45.9 µM (top of the series)
# Method in brief: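 After 24 h with human IFN-beta (4 ng/ml) and compound titrations (top 46 uM final, 1:3, 12 points), HLA-B HiBit myoblasts were lysed for either Nano-Glo HiBiT luminescence or CellTiter Glo viability on paired plates.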
# Tags tell the direction and shape of the fitted curve.
smiles,measurement,setting,value
Cc1nc2cnc3ccc(C#Cc4cccnc4)cc3c2n1-c1ccc(C(C)(C)C#N)cc1,Potency,CRL-7250,active: 0.0469 µM
same,Potency,KB-3-1,active: 0.0935 µM
same,Potency,MCC-13,"inconclusive: 0.418 µM [inhibitor, full curve]"
same,Potency,MCC-26,"inconclusive: 1.18 µM [inhibitor, full curve]"
same,Potency,MKL-1,"inconclusive: 3.72 µM [inhibitor, full curve]"
same,Potency,MKL-2,"inconclusive: 0.418 µM [inhibitor, full curve, poor fit]"
same,Potency,UISO,"inconclusive: 0.235 µM [inhibitor, full curve]"
same,Potency,WaGa,"inconclusive: 0.935 µM [inhibitor, full curve]"
CCCCCCCCCCCCCCCC[n+]1ccccc1,Potency,W2,active: 1.51 µM
same,Potency,CRL-7250,active: 1.5 µM
same,Potency,NIH3T3,active: 16.8 µM
same,Potency,MCC-13,active: 11.9 µM
same,Potency,MCC-26,"inconclusive: 33.5 µM [inhibitor, single point]"
same,Potency,MKL-1,active: 0.841 µM
same,Potency,WaGa,active: 2.11 µM
same,Potency,astro,active: 3.16 µM
same,Potency,C33A,active: 17.8 µM
same,Potency,CAOV3,"inconclusive: 11.2 µM [cytotoxic, partial curve, poor fit]"
same,Potency,CASKI,active: 7.94 µM
same,Potency,Es-2,active: 17.8 µM
same,Potency,HeLa,"inconclusive: 35.5 µM [cytotoxic, single point]"
Cc1cc(CS(=O)(=O)c2ccccc2)cc(OCc2ccc(CN3CCC[C@H]3CO)cc2)c1,Potency,CRL-7250,active: 1.32 µM
same,Potency,HaCat,active: 1.48 µM
same,Potency,NIH3T3,active: 2.96 µM
same,Potency,MKL-2,inactive
same,Potency,WaGa,inactive
C/C=C(/C(=C/C)c1ccc(O)cc1)c1ccc(O)cc1,max response,CRL-7250,inactive: 1.03%
same,Potency,NIH3T3,"inconclusive: 23.7 µM [inhibitor, single point]"
same,Potency,WaGa,"inconclusive: 33.5 µM [inhibitor, single point]"
same,Potency,[1],"inconclusive: 14.1 µM [inhibitor, partial curve, poor fit]"
same,Potency,astro,"inconclusive: 8.91 µM [inhibitor, partial curve]"
COC1=C(OC)C(=O)C(CC=C(C)CCC=C(C)CCC=C(C)CCC=C(C)CCC=C(C)CCC=C(C)CCC=C(C)CCC=C(C)CCC=C(C)CCC=C(C)C)=C(C)C1=O,outcome,CRL-7250,inactive
same,Potency,[1],inactive
COc1ccc(C2CNC(=O)C2)cc1OC1CCCC1 (stereo not drawn),max response,HEK293,inactive: 0.111%
same,outcome,HEK293,inactive
same,Potency,CAOV3,inactive
CC(=O)[C@]1(O)Cc2c(O)c3c(c(O)c2[C@@H](O[C@H]2C[C@H](N)[C@@H](O)[C@H](C)O2)C1)C(=O)c1ccccc1C3=O,Potency,CRL-7250,active: 1.48 µM
same,Potency,MKL-2,active: 0.105 µM
same,Potency,WaGa,active: 0.0833 µM
Nc1ncnc2c1ncn2[C@@H]1O[C@H](CO)[C@@H](O)[C@@H]1O,outcome,CRL-7250,inactive
same,max response,NIH3T3,inactive: 3.26%
same,Potency,WaGa,active: 1.05 µM
CC(=CC(=O)Nc1ccccc1C(=O)O)c1ccc2ccccc2c1,Potency,HEK293,"inconclusive: 33.2 µM [inhibitor, single point]"
Cc1cc(NC(=O)Nc2ccc(N(C)C)cc2)c2cc(F)cc(F)c2n1,Potency,HEK293,active: 14.8 µM
CC(=O)OCC(=O)[C@@]12N=C(C)O[C@@H]1C[C@H]1[C@@H]3CCC4=CC(=O)C=C[C@]4(C)[C@H]3[C@@H](O)C[C@@]12C,Potency,CRL-7250,"inconclusive: 15 µM [inhibitor, partial curve]"
same,max response,NIH3T3,inactive: -1.08%
same,"activity change, negative = inhibition",[2]; HiBiT,inactive: -18.3%
same,"activity change, negative = inhibition",[2]; Viability,inactive: 19.6%
same,Potency,C33A,inactive
COC(=O)[C@@H]1CC2=CC(=O)CC[C@]2(C)[C@@]23O[C@@H]2C[C@@]2(C)[C@H](CC[C@@]24CCC(=O)O4)[C@@H]13,outcome,HEK293,inactive
COc1c2occc2c(OC)c2c(=O)cc(C)oc12,Potency,W2,inactive
same,outcome,CRL-7250,inactive
same,Potency,[1],"inconclusive: 14.1 µM [inhibitor, partial curve]"
